The other results are listed elsewhere or left out.
B1: chr3:121431430:121432303:-|three_prime_utr|ENSG00000051341|control|control|control (ssRNA)
RNA: GGGAGUUCUACAGUCCGACGAUCUGGAAAGAACAGAGAUUACCCUUUCACCUACCUCAGCAAAACAAACUUUCAAGUCUUGAUAGACUUAGCCUAGUAAUUUUAUAGUGAGAGUUUCAAACUAUAUAUCAGUGUCUAUAGCAUCAACAGAGGAUUGAGCAUCA
B2: chr12:3284911:3285012:+|3pUTR|ENSG00000011105|msi1|total|mutant (ssRNA)
RNA: GGGAGUUCUACAGUCCGACGAUCGGAGGACAGAACCGUUGGCAUUAUCAGGAUUCGUGUUUUGUGGGGGUGGGAGUGGAGAGCCGGGUGGUCUUGUGAGUUGUGCAGGGUGAAGACCGCUUCCCUGAGACAGGGGCAGUGGUGCAACAGAGGAUUGAGCAUCA
B3: ENSG00000107863:be:win_351|CDS|ENSG00000107863|bound_else_gene|NA|bound_elsewhere_windowed (ssRNA)
RNA: GGGAGUUCUACAGUCCGACGAUCAUUAUGUACAGGUGACCGAAUUAUAAAAGUCAAUGGAGAAAGUGUUAUUGGCAAAACCUAUUCCCAAGUAAUUGCUUUAAUUCAAAACAGUGAUACAACAUUGGAACUUAGUGUUAUGCCCAACAGAGGAUUGAGCAUCA
B4: chr2:85598546:85599075:-|three_prime_utr|ENSG00000168890|control|control|control (ssRNA)
RNA: GGGAGUUCUACAGUCCGACGAUCAAGCCAGACCACUGGGGUUUCCUGCUGCAGGAAUUGGGGGCUGGGAACAGCAGAGGGGAUAGAAGUCUGGUGGAGGUGGAGUGGGCACGCCUUAGCCUACGGAAAGGCCCAUUUCUGGGCCAACAGAGGAUUGAGCAUCA
B5: chr1:109062750:109062855:-|3pUTR|ENSG00000197780|unk|total|mutant (ssRNA)
RNA: GGGAGUUCUACAGUCCGACGAUCGCUUUCAGCCGCAGGAAUGGCAUUGUUUAAAAAGCUGAUGGCAGGGUAAGCAUUUGGGUCCGUGUUUUAUUAACAUAUUUGUAAGUACUUGUUCAUUGUGGAAAUGUGUCCUUGACUAAACAACAGAGGAUUGAGCAUCA
B6: chr7:98206920:98207021:+|3pUTR|ENSG00000164715|unk|FALSE|unique (ssRNA)
RNA: GGGAGUUCUACAGUCCGACGAUCGUUCUGCAUUAAGCCCCAGGUUCUCUUCUGGCUUUGAAAGGGCCCGAGUGCUCCCAGUGUAGCUUCGUCACAUCGUCACGAGCCCCUGUGGUCAUGGGCGACCUCACACCUCCCUCCCUGCAACAGAGGAUUGAGCAUCA
B7: chr10:15076986:15077088:-|3pUTR|ENSG00000176244|unk|FALSE|unique (ssRNA)
RNA: GGGAGUUCUACAGUCCGACGAUCUUUUCCUUUAAGAAGAUACCCAGUAGUGGGAUUGCUGGGUAGAAUGGUAGUUCUAUUUUUAGUUCCAUGAGAAAUUUCCGUGCUGUUUUUCAUAGAGGUUGUACUAAUUUACAUUCCCACCAACAGAGGAUUGAGCAUCA
B8: ENSG00000089057:stop:overlap|stop_codon|ENSG00000089057|stop_codon|NA|stop_codon (ssRNA)
RNA: GGGAGUUCUACAGUCCGACGAUCAAGGCCUCAGGAAGAGCGACAACAGCCGGAGUUCAGAUGAAGACUCCCAGGCCACGGGAUAGCCUUUGCUGUGCCCUGUGGCCUGGCCGCAGUGAGGCAUGUAUCUGUAGUUCCUUGCUGCAACAGAGGAUUGAGCAUCA
B9: chr1:225419324:225419425:-|CDS|ENSG00000143815|msi1|total|mutant (ssRNA)
RNA: GGGAGUUCUACAGUCCGACGAUCUUACACCGCAACACAGUACCGCCUUCGUCCAAGAAGAGAAGAAGUCAAAUUAAAAGAAACCGAUUCUAAGGAAGAAAAAUACGUUGCAAAAGAACUGGCAGUGAGAACCUUUGAAGUGACCAACAGAGGAUUGAGCAUCA
B10: chr1:161190761:161190881:-|3pUTR|ENSG00000158859|msi1|total|mutant (ssRNA)
RNA: GGGAGUUCUACAGUCCGACGAUCUGCGGGUCACAGGAGGGAGGGGGAAGGCAGGGAGGGCCUGGGCCCCAGUUGUAUUUAUUCCGUAUUUAUUCACUUUUAUUCCGCACCAGGGAAGGGGACAAGGACCCGGGUCCUGGGGAACAACAGAGGAUUGAGCAUCA
B11: chr15:44562695:44563301:-|three_prime_utr|ENSG00000104133|control|control|control (ssRNA)
RNA: GGGAGUUCUACAGUCCGACGAUCUGAAAUUGUAAAUGUGCUUCUGAAGGACCCUCAGACAGGUUGCUGUCUAAAGGACAUGCUAGCAGGUUAGAUGAUUUCAUAGGUGUCUGUUUUCUUGUACUGUUAGCAGAUUCUGACAGACAACAGAGGAUUGAGCAUCA
B12: chr7:47276374:47276475:-|3pUTR|ENSG00000136205|msi1|total|mutant (ssRNA)
RNA: GGGAGUUCUACAGUCCGACGAUCCUGGGGUUUGGGAAUGUGCUUUGUGAACUCUGCUUUAAAGUGAGGGGCCGAGGAAAACUCCGAAACAGGCAGAGUUGGAAGCAGCCAAAUCACAGUGGGUGUUGUGUGUGUGUGCGUGUGCAACAGAGGAUUGAGCAUCA
B13: chr6:169419968:169421160:-|three_prime_utr|ENSG00000285733|control|control|control (ssRNA)
RNA: GGGAGUUCUACAGUCCGACGAUCUGGCAGGAGGGGAGGCGUUUAUGAGAGUCCCCGGUGGGCACAUAUUAAAAAAAGCUAAGUAGAAAAAUCACUGAGAACUCAUAACUGGUCAAUGAGUUCAGGUAGACAAUGAGGGAGGGUCAACAGAGGAUUGAGCAUCA
B14: chrX:155260805:155261229:-|CDS|ENSG00000155961|control|control|control (ssRNA)
RNA: GGGAGUUCUACAGUCCGACGAUCUGGUCUUCUCUUAUUUGACAUUACCAACCGCAGGUCCUUCCAGAAUGUCCAUGAGUGGUUAGAAGAGACCAAAGUACACGUUCAGCCCUACCAAAUUGUAUUUGUUCUGGUGGGUCACAACAACAGAGGAUUGAGCAUCA

Target: MSI1 full-length (mouse, UniProt Q61474 1-362)
Sequence of UniProt Q61474 (Q61474 whole entry): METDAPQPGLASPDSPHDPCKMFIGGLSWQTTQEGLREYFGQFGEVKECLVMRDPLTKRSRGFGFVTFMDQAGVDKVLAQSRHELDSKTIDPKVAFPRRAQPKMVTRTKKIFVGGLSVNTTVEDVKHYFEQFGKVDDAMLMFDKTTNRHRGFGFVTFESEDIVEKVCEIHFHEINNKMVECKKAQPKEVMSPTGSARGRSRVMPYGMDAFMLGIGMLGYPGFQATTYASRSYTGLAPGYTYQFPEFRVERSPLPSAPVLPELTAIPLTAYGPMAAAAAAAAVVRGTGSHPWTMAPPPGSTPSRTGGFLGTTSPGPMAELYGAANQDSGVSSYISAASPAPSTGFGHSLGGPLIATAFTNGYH
Assay: nsRBNS (natural sequence RNA bind-n-seq); RBNS binding buffer (assumed for nsRBNS): 25 mM Tris pH 7.5, 150 mM KCl, 3 mM MgCl2, 0.01% Triton X-100, 500 ug/ml BSA, 20 U/ml SUPERase-In, 4 C; UNK is unkempt and MSI1 is Musashi-1; names of the RNAs are library labels; protein concentration not given here; high values mean tight binding

Binder	binding signal
B1	17.4 enrichment R
B2	0.676 enrichment R
B3	0.444 enrichment R
B4	0.462 enrichment R
B5	0.644 enrichment R
B6	0.858 enrichment R
B7	6.19 enrichment R
B8	4.03 enrichment R
B9	0.304 enrichment R
B10	1.51 enrichment R
B11	0.442 enrichment R
B12	0.605 enrichment R
B13	2.23 enrichment R
B14	0.483 enrichment R
